# Assay results reported in the supplement of paper PMC8728848.
# Some of the results follow.
# Experiments:
# Assay in all cases: glycan array binding signal (z-score within array); higher = stronger binding
# Conditions in all cases: glycan notation: IUPAC condensed, linker removed
# [1] = molecular target: Man(a1-3)[Man(a1-6)]Man(a1-6)[Man(a1-3)]Man(b1-4)GlcNAc(b1-4)GlcNAc
# How it was run: (§1)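 Glycan array binding is given as a within-array Z-score, which can be read as non-binding when negative. The arrays, 3228 of them, came from the Consortium for Functional Glycomics database and were retained only where the protein sequence was available. Z-scores were averaged across arrays of the same protein sequence at different concentrations or buffers and across linkers.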
# [2] = molecular target: Man(a1-3)[Man(a1-6)]Man(b1-4)GlcNAc(b1-4)GlcNAc
# How it was run: as §1
# Man(a1-6)Man = molecular target: Man(a1-6)Man
# How it was run: as §1
# Man(b1-4)GlcNAc = molecular target: Man(b1-4)GlcNAc
# How it was run: as §1
# Neu5Ac(a2-3)Gal = molecular target: Neu5Ac(a2-3)Gal
# How it was run: as §1
# [3] = molecular target: Neu5Ac(a2-3)Gal(b1-3)GalNAc
# How it was run: as §1
# [4] = molecular target: Neu5Ac(a2-3)Gal(b1-3)GalNAc(b1-3)Gal(a1-4)Gal(b1-4)Glc
# How it was run: as §1
# [5] = molecular target: Neu5Ac(a2-3)Gal(b1-3)GalNAc(b1-3)Gal(b1-4)GlcNAc
# How it was run: as §1
# [6] = molecular target: Neu5Ac(a2-3)Gal(b1-3)GalNAc(b1-4)[Neu5Ac(a2-3)]Gal(b1-4)Glc
# How it was run: as §1
# [7] = molecular target: Neu5Ac(a2-3)Gal(b1-3)GalNAc6S
# How it was run: as §1
# [8] = molecular target: Neu5Ac(a2-3)Gal(b1-3)GlcNAc
# How it was run: as §1
# [9] = molecular target: Neu5Ac(a2-3)Gal(b1-3)GlcNAc(b1-3)Gal(b1-3)GlcNAc
# How it was run: as §1
# [10] = molecular target: Neu5Ac(a2-3)Gal(b1-3)GlcNAc6S
# How it was run: as §1
# [11] = molecular target: Neu5Ac(a2-3)Gal(b1-3)[Fuc(a1-4)]GlcNAc
# How it was run: as §1
# [12] = molecular target: Neu5Ac(a2-3)Gal(b1-3)[Fuc(a1-4)]GlcNAc(b1-3)Gal(b1-3)[Fuc(a1-4)]GlcNAc
# How it was run: as §1
# [13] = molecular target: Neu5Ac(a2-3)Gal(b1-3)[Fuc(a1-4)]GlcNAc(b1-3)Gal(b1-4)[Fuc(a1-3)]GlcNAc
# How it was run: as §1
# [14] = molecular target: Neu5Ac(a2-3)Gal(b1-3)[Neu5Ac(a2-3)Gal(b1-4)]GlcNAc
# How it was run: as §1
# [15] = molecular target: Neu5Ac(a2-3)Gal(b1-3)[Neu5Ac(a2-6)]GalNAc
# How it was run: as §1
# Neu5Ac(a2-3)Gal(b1-4)Glc = molecular target: Neu5Ac(a2-3)Gal(b1-4)Glc
# How it was run: as §1
# [16] = molecular target: Neu5Ac(a2-3)Gal(b1-4)GlcNAc
# How it was run: as §1
# [17] = molecular target: Neu5Ac(a2-3)Gal(b1-4)GlcNAc(b1-2)Man(a1-3)[GlcNAc(b1-2)Man(b1-4)GlcNAc(b1-2)Man(a1-6)]Man(b1-4)GlcNAc(b1-4)GlcNAc
# How it was run: as §1
# [18] = molecular target: Neu5Ac(a2-3)Gal(b1-4)GlcNAc(b1-2)Man(a1-3)[Neu5Ac(a2-6)Gal(b1-4)GlcNAc(b1-2)Man(a1-6)]Man(b1-4)GlcNAc(b1-4)GlcNAc
# How it was run: as §1
# [19] = molecular target: Neu5Ac(a2-3)Gal(b1-4)GlcNAc(b1-3)Gal(b1-3)GlcNAc
# How it was run: as §1
# [20] = molecular target: Neu5Ac(a2-3)Gal(b1-4)GlcNAc(b1-3)Gal(b1-4)GlcNAc
# How it was run: as §1
# [21] = molecular target: Neu5Ac(a2-3)Gal(b1-4)GlcNAc(b1-3)Gal(b1-4)GlcNAc(b1-3)Gal(b1-4)GlcNAc
# How it was run: as §1
# [22] = molecular target: Neu5Ac(a2-3)Gal(b1-4)GlcNAc(b1-3)Gal(b1-4)[Fuc(a1-3)]GlcNAc
# How it was run: as §1
# [23] = molecular target: Neu5Ac(a2-3)Gal(b1-4)GlcNAc(b1-3)GalNAc
# How it was run: as §1
# [24] = molecular target: Neu5Ac(a2-3)Gal(b1-4)GlcNAc(b1-6)[Gal(b1-3)]GalNAc
# How it was run: as §1
# [25] = molecular target: Neu5Ac(a2-3)Gal(b1-4)GlcNAc(b1-6)[Neu5Ac(a2-3)Gal(b1-3)]GalNAc
# How it was run: as §1
# [26] = molecular target: Neu5Ac(a2-3)Gal(b1-4)GlcNAc6S
# How it was run: as §1
# [27] = molecular target: Neu5Ac(a2-3)Gal(b1-4)[Fuc(a1-3)]GlcNAc
# How it was run: as §1
# [28] = molecular target: Neu5Ac(a2-3)Gal(b1-4)[Fuc(a1-3)]GlcNAc(b1-3)Gal
# How it was run: as §1
# [29] = molecular target: Neu5Ac(a2-3)Gal(b1-4)[Fuc(a1-3)]GlcNAc(b1-3)Gal(b1-4)GlcNAc
# How it was run: as §1
# [30] = molecular target: Neu5Ac(a2-3)Gal(b1-4)[Fuc(a1-3)]GlcNAc(b1-3)Gal(b1-4)[Fuc(a1-3)]GlcNAc(b1-3)Gal(b1-4)[Fuc(a1-3)]GlcNAc
# How it was run: as §1
# [31] = molecular target: Neu5Ac(a2-3)Gal(b1-4)[Fuc(a1-3)]GlcNAc(b1-6)[Gal(b1-3)]GalNAc
# How it was run: as §1
# [32] = molecular target: Neu5Ac(a2-3)Gal(b1-4)[Fuc(a1-3)]GlcNAc(b1-6)[Neu5Ac(a2-3)Gal(b1-3)]GalNAc
# How it was run: as §1
# [33] = molecular target: Neu5Ac(a2-3)Gal(b1-4)[Fuc(a1-3)]GlcNAc6S
# How it was run: as §1
# [34] = molecular target: Neu5Ac(a2-3)Gal6S(b1-4)GlcNAc
# How it was run: as §1
# [35] = molecular target: Neu5Ac(a2-3)Gal6S(b1-4)[Fuc(a1-3)]GlcNAc
# How it was run: as §1
# Neu5Ac(a2-3)GalNAc = molecular target: Neu5Ac(a2-3)GalNAc
# How it was run: as §1
# [36] = molecular target: Neu5Ac(a2-3)GalNAc(b1-4)GlcNAc
# How it was run: as §1
# [37] = molecular target: Neu5Ac(a2-3)[GalNAc(b1-4)]Gal(b1-4)Glc
# How it was run: as §1
# [38] = molecular target: Neu5Ac(a2-3)[GalNAc(b1-4)]Gal(b1-4)GlcNAc
# How it was run: as §1
binder,measurement,setting,value
"DGL (Dioclea grandiflora), P08902 (protein) ADTIVAVELDSYPNTDIGDPNYPHIGIDIKSIRSKSTARWNMQTGKVGTVHISYNSVAKRLSAVVSYSGSSSTTVSYDVDLNNVLPEWVRVGLSATTGLYKETNTILSWSFTSKLKTNSIADENSLHFSFHKFSQNPKDLILQGDAFTDSDGNLELTKVSSSGDPQGNSVGRALFYAPVHIWESSAVVASFDATFTFLIKSPDREPADGITFFIANTDTSIPSGSGGRLLGLFPDAN",glycan array binding signal (z-score),[1],1.08
same,glycan array binding signal (z-score),[2],3.07
same,glycan array binding signal (z-score),Man(a1-6)Man,-0.179
same,glycan array binding signal (z-score),Man(b1-4)GlcNAc,-0.186
same,glycan array binding signal (z-score),Neu5Ac(a2-3)Gal,-0.18
same,glycan array binding signal (z-score),[3],-0.175
same,glycan array binding signal (z-score),[4],-0.171
same,glycan array binding signal (z-score),[5],-0.181
same,glycan array binding signal (z-score),[6],-0.172
same,glycan array binding signal (z-score),[7],-0.175
same,glycan array binding signal (z-score),[8],-0.173
same,glycan array binding signal (z-score),[9],-0.179
same,glycan array binding signal (z-score),[10],-0.179
same,glycan array binding signal (z-score),[11],-0.184
same,glycan array binding signal (z-score),[12],-0.164
same,glycan array binding signal (z-score),[13],-0.174
same,glycan array binding signal (z-score),[14],-0.175
same,glycan array binding signal (z-score),[15],-0.089
same,glycan array binding signal (z-score),Neu5Ac(a2-3)Gal(b1-4)Glc,-0.172
same,glycan array binding signal (z-score),[16],-0.175
same,glycan array binding signal (z-score),[17],-0.162
same,glycan array binding signal (z-score),[18],-0.168
same,glycan array binding signal (z-score),[19],-0.171
same,glycan array binding signal (z-score),[20],-0.177
same,glycan array binding signal (z-score),[21],-0.183
same,glycan array binding signal (z-score),[22],-0.163
same,glycan array binding signal (z-score),[23],-0.18
same,glycan array binding signal (z-score),[24],-0.179
same,glycan array binding signal (z-score),[25],-0.169
same,glycan array binding signal (z-score),[26],-0.175
same,glycan array binding signal (z-score),[27],-0.174
same,glycan array binding signal (z-score),[28],-0.181
same,glycan array binding signal (z-score),[29],-0.169
same,glycan array binding signal (z-score),[30],-0.178
same,glycan array binding signal (z-score),[31],-0.164
same,glycan array binding signal (z-score),[32],-0.17
same,glycan array binding signal (z-score),[33],-0.18
same,glycan array binding signal (z-score),[34],-0.179
same,glycan array binding signal (z-score),[35],-0.178
same,glycan array binding signal (z-score),Neu5Ac(a2-3)GalNAc,-0.171
same,glycan array binding signal (z-score),[36],-0.172
same,glycan array binding signal (z-score),[37],-0.175
same,glycan array binding signal (z-score),[38],-0.166
